The source of these data is patent US10358436B2, “Kinase inhibitors and method of treating cancer” (University Health Network, priority 2010, dated 2019).

Structures can show the parent of a compound that is named as a salt. Where two headings read alike, the source gives them in different places. A value given as a limit tells only on which side of the number the result lay.

A word on the GI50: it is the concentration giving 50% growth inhibition.

Holding throughout (experiment): cells
For test [1], the system named is HCC1954 basal breast cancer cell line. As to conditions: Homo sapiens, HCC1954, 120 h.
In test [2] the test system is MDA-MB-468 basal breast cancer cell line. As to conditions: Homo sapiens, MDA-MB-468, 120 h, read-out: Cell Line GI50 Range MDA-MB-468.
Test [3] deals with A549 lung cancer cell line. As to conditions: Homo sapiens, A549, 120 h, read-out: Cell Line GI50 Range A-549.
Test [4] deals with MCF-7 luminal breast cancer cell line. Particulars: Homo sapiens, MCF7, 120 h.
Test [5] concerns SW620 colon cancer cell line. As to conditions: Homo sapiens, SW-620, 120 h, read-out: Cell Line GI50 Range SW-620.
The mark [6] stands for this setting: read-out: Cell Line GI50 Range HCC-1954.
Where [7] appears, read: read-out: Cell Line GI50 Range MCF-7.
[8] abbreviates: read-out: Cell Line GI50 Range HCC-1954, HCC1954 basal breast cancer cell line, SRB assay, 5 days.
Setting [9] is: read-out: Cell Line GI50 Range MCF-7, MCF-7 luminal breast cancer cell line, SRB assay, 5 days.

With `C[C@@H]1CCC[C@H](C)N1Cc1ccc(/C=C/c2n[nH]c3cc([C@@H]4C[C@@]45C(=O)Nc4ccccc45)ccc23)cc1` [Example A201, (1R,2S)-(E)-2-(3-(4-((cis-2,6-dimethylpiperidin-1-yl)methyl)styryl)-1H-indazol-6-yl)spiro[cyclopropane-1,3′-indolin]-2′-one 2,2,2-trifluoroacetate], the GI50 in test [1] (setting [6]) is 100 to 1000 nM; in test [2], less than 100 nM; in test [3] it was less than 100 nM; in test [4] (setting [7]) it was 100 to 1000 nM.
Take `CCN1CCN(c2ccc(/C=C/c3n[nH]c4cc([C@@H]5C[C@@]56C(=O)Nc5ccc(OC)cc56)ccc34)cc2)CC1` [Example A187, (1R,2S)-(E)-2-(3-(4-(4-ethylpiperazin-1-yl)styryl)-1H-indazol-6-yl)-5′-methoxyspiro[cyclopropane-1,3′-indolin]-2′-one 2,2,2-trifluoroacetate]: the 50% growth inhibitory concentration (GI50) in test [1] (setting [6]) is 100 to 1000 nM; in test [2], less than 100 nM; in test [3], less than 100 nM; in test [4] (setting [7]) it was less than 100 nM.
In the case of `COc1ccc2c(c1)[C@]1(C[C@H]1c1ccc3c(/C=C/c4ccc5c(c4)CCN(C)C5)n[nH]c3c1)C(=O)N2` [Example A75, (1R,2S)-5′-methoxy-2-(3-((E)-2-(2-methyl-1,2,3,4-tetrahydroisoquinolin-6-yl)vinyl)-1H-indazol-6-yl)spiro[cyclopropane-1,3′-indolin]-2′-one 2,2,2-trifluoroacetate salt], the GI50 in test [1] (setting [6]) was more than 10000 nM; in test [2], less than 100 nM; in test [3], less than 100 nM; in test [4] (setting [7]), 100 to 1000 nM.
Turning to `O=C1Nc2ccccc2[C@]12C[C@H]2c1ccc2cn[nH]c2c1` (racemic) [Example A2, (1R*,2S*)-2-(1H-indazol-6-yl)spiro[cyclopropane-1,3′-indolin]-2′-one], the 50% growth inhibitory concentration (GI50) in test [1] (setting [6]), in test [2], in test [3] and in test [4] (setting [7]) was more than 10000 nM each time.
Consider `O=C1Nc2ccccc2[C@]12C[C@H]2c1ccc2c(/C=C/c3ccc(CCN4CCOCC4)cc3)n[nH]c2c1` [Example A205, (1R,2S)-(E)-2-(3-(4-(2-morpholinoethyl)styryl)-1H-indazol-6-yl)spiro[cyclopropane-1,3′-indolin]-2′-one 2,2,2-trifluoroacetate], for which the GI50 in test [3] and in test [5] was less than 100 nM throughout.
Take `CN1C(=O)[C@@]2(C[C@H]2c2ccc3c(/C=C/c4ccc(CN5CCCC5)cc4)n[nH]c3c2)c2ccccc21` [Example A115, (1R,2S)-(E)-1′-methyl-2-(3-(4-(pyrrolidin-1-ylmethyl)styryl)-1H-indazol-6-yl)spiro[cyclopropane-1,3′-indolin]-2′-one 2,2,2-trifluoroacetate]: the GI50 in test [1] (setting [6]) was 100 to 1000 nM; in test [2] it was less than 100 nM; in test [5], less than 100 nM; in test [4] (setting [7]), 1000 to 10000 nM.
With `COc1ccc2c(c1)[C@]1(C[C@H]1c1ccc3c(-c4ccnc(N5CCN(C)CC5)c4)n[nH]c3c1)C(=O)N2` (relative stereo) [Example A37, (1R*,2S*)-5′-Methoxy-2-(3-(2-(4-methylpiperazin-1-yl)pyridin-4-yl)-1H-indazol-6-yl)spiro[cyclopropane-1,3′-indolin]-2′-one], the GI50 is more than 10000 nM in test [1] (setting [6]), 100 to 1000 nM in test [2], less than 100 nM in test [5] and more than 10000 nM in test [4] (setting [7]).
With `O=C1Nc2ccccc2[C@]12C[C@H]2c1ccc2c(/C=C/c3ccc(N4CCNCC4)cc3)n[nH]c2c1` (relative stereo) [Example A91, (1R*,2S*)-(E)-2-(3-(4-(piperazin-1-yl)styryl)-1H-indazol-6-yl)spiro[cyclopropane-1,3′-indolin]-2′-one 2,2,2-trifluoroacetate], the 50% growth inhibitory concentration (GI50) in test [1] (setting [6]) was 1000 to 10000 nM; in test [3], less than 100 nM; in test [5], less than 100 nM; in test [4] (setting [7]) it was less than 100 nM.
In the case of `COc1ccc2c(c1)[C@]1(C[C@H]1c1ccc3c(-c4ccc(C(=O)N5CCN(C)CC5)cc4)n[nH]c3c1)C(=O)N2` (relative stereo) [Example A148, (1R*,2S*)-5′-methoxy-2-(3-(4-(4-methylpiperazine-1-carbonyl)phenyl)-1H-indazol-6-yl)spiro[cyclopropane-1,3′-indolin]-2′-one 2,2,2-trifluoroacetate], the concentration for 50% growth inhibition (GI50) in test [1] (setting [6]) is more than 10000 nM; in test [2], 100 to 1000 nM.
Regarding `CCN(CC)Cc1ccc(/C=C/c2n[nH]c3cc([C@@H]4C[C@@]45C(=O)Nc4ccc(OC)cc45)ccc23)cc1` [Example A206, (1R,2S)-(E)-2-(3-(4-((diethylamino)methyl)styryl)-1H-indazol-6-yl)-5′-methoxy spiro[cyclopropane-1,3′-indolin]-2′-one 2,2,2-trifluoroacetate], the concentration for 50% growth inhibition (GI50) in test [1] (setting [6]) was 1000 to 10000 nM; in test [2], less than 100 nM; in test [3] it was less than 100 nM; in test [4] (setting [7]), less than 100 nM.
Turning to `Cc1ccc2c(c1)[C@]1(C[C@H]1c1ccc3c(/C=C/c4ccc(CN(C)C)cc4)n[nH]c3c1)C(=O)N2` (relative stereo) [Example A169, (1R*,2S*)-(E)-2-(3-(4-((dimethylamino)methyl)styryl)-1H-indazol-6-yl)-5′-methylspiro[cyclopropane-1,3′-indolin]-2′-one 2,2,2-trifluoroacetate], the GI50 was 1000 to 10000 nM in test [1] (setting [6]), less than 100 nM in test [3] and less than 100 nM in test [4] (setting [7]).
Take `COc1ccc2c(c1)[C@]1(C[C@H]1c1ccc3c(/C=C/c4ccc(OC5CCN(C)CC5)cc4)n[nH]c3c1)C(=O)N2` [Example A79, (1R,2S)-(E)-5′-methoxy-2-(3-(4-(1-methylpiperidin-4-yloxy)styryl)-1H-indazol-6-yl)spiro[cyclopropane-1,3′-indolin]-2′-one 2,2,2-trifluoroacetate salt]: the GI50 in test [1] (setting [6]) was 1000 to 10000 nM; in test [3], less than 100 nM; in test [5], less than 100 nM; in test [4] (setting [7]) it was 100 to 1000 nM.
In the case of `O=C1Nc2ccccc2[C@]12C[C@H]2c1ccc2c(/C=C/c3cccnc3)n[nH]c2c1` (relative stereo) [Example A28, (1R*,2S*)-2-(3-((E)-2-(pyridin-3-yl)vinyl)-1H-indazol-6-yl)spiro-[cyclopropane-1,3′-indolin]-2′-one], the GI50 in test [1] (setting [8]), in test [3] and in test [4] (setting [9]) was 1000 to 10000 nM throughout.
Turning to `COc1ccc2c(c1)[C@]1(C[C@H]1c1ccc3c(/C=C/c4cc(F)c(CN(C)C)c(F)c4)n[nH]c3c1)C(=O)N2` (relative stereo) [Example A215, (1R*,2S*)-(E)-2-(3-(4-((dimethylamino)methyl)-3,5-difluorostyryl)-1H-indazol-6-yl)-5′-methoxyspiro[cyclopropane-1,3′-indolin]-2′-one 2,2,2-trifluoro acetate], the GI50 in test [1] (setting [6]) and in test [4] (setting [7]) was less than 100 nM in each case.
On to `COc1cc2c(cc1OC)[C@]1(C[C@H]1c1ccc3c(/C=C/c4ccc(CN(C)C)cc4)n[nH]c3c1)C(=O)N2` (relative stereo) [Example A168, (1R*,2S*)-(E)-2-(3-(4-((dimethylamino)methyl)styryl)-1H-indazol-6-yl)-5′,6′-dimethoxyspiro[cyclopropane-1,3′-indolin]-2′-one 2,2,2-trifluoroacetate], for which the GI50 in test [1] (setting [8]), in test [2], in test [5] and in test [4] (setting [9]) was 100 to 1000 nM throughout.
As for `COc1ccc2c(c1)[C@]1(C[C@H]1c1ccc3c(-c4ccc(N5CC[C@@H](N(C)C)C5)cc4)n[nH]c3c1)C(=O)N2` [Example A127, (1R,2S)-2-(3-(4-((R)-3-(dimethylamino)pyrrolidin-1-yl)phenyl)-1H-indazol-6-yl)-5′-methoxyspiro[cyclopropane-1,3′-indolin]-2′-one 2,2,2-trifluoroacetate], the 50% growth inhibitory concentration (GI50) in test [1] (setting [8]) was 1000 to 10000 nM; in test [2] it was less than 100 nM; in test [5], less than 100 nM; in test [4] (setting [9]), 1000 to 10000 nM.
As to `NC(=O)CN1C(=O)[C@@]2(C[C@H]2c2ccc3c(/C=C/c4ccc(CN5CCCCC5)cc4)n[nH]c3c2)c2ccccc21` (relative stereo) [Example A165, 2-((1R*,2S*)-(E)-2′-oxo-2-(3-(4-(piperidin-1-ylmethyl)styryl)-1H-indazol-6-yl)spiro[cyclopropane-1,3′-indoline]-1′-yl)acetamide 2,2,2-trifluoroacetate], the GI50 in test [1] (setting [6]) is 1000 to 10000 nM; in test [2], less than 100 nM; in test [3], less than 100 nM; in test [4] (setting [7]), 1000 to 10000 nM.
In the case of `COc1ccc2c(c1)[C@]1(C[C@H]1c1ccc3c(/C=C/c4ccc(C(=O)N5CCN(C)CC5)cc4)n[nH]c3c1)C(=O)N2` (relative stereo) [Example A179, (1R*,2S*)-(E)-5′-methoxy-2-(3-(4-(4-methylpiperazine-1-carbonyl)styryl)-1H-indazol-6-yl)spiro[cyclopropane-1,3′-indolin]-2′-one 2,2,2-trifluoroacetate], the GI50 in test [1] (setting [8]) was 1000 to 10000 nM; in test [2] it was less than 100 nM; in test [5] it was less than 100 nM; in test [4] (setting [9]) it was less than 100 nM.
Take `O=C1Nc2ccccc2[C@]12C[C@H]2c1ccc2c(/C=C/c3cc(F)c(CN4CCOCC4)c(F)c3)n[nH]c2c1` [Example A116, (1R,2S)-(E)-2-(3-(3,5-difluoro-4-(morpholinomethyl)styryl)-1H-indazol-6-yl)spiro[cyclopropane-1,3′-indolin]-2′-one 2,2,2-trifluoroacetate]: the GI50 in test [1] (setting [6]) is 100 to 1000 nM; in test [2] it was less than 100 nM; in test [5], 100 to 1000 nM; in test [4] (setting [7]), less than 100 nM.
